Where a chain is given by its changes, count along the chain named. Some of the results follow.
T1: RBFOX1 RRM (Homo sapiens, UniProt Q9NWB1 109-208)
T1 sequence: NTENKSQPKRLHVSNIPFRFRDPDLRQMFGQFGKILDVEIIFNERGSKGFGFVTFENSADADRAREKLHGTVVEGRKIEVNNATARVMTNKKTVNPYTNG

B1: CGCACCU (DNA:RNA)
RNA: GGGAGACCGGAAUUCAGAUUGUCCCGCACCUUUAAAUCCCGUCGUAGCCACCA
DNA 1: CAATCTGAATTCCGGTCTCCC
DNA 2: TGGTGGCTACGACGGGATT
B2: AGUAUAG (DNA:RNA)
RNA: B1 RNA with C25A, C27U, C29U, C30A, U31G
DNA 1: CAATCTGAATTCCGGTCTCCC
DNA 2: TGGTGGCTACGACGGGATT
B3: GCCCCUG (DNA:RNA)
RNA: B1 RNA with C25G, G26C, A28C, C30U, U31G
DNA 1: CAATCTGAATTCCGGTCTCCC
DNA 2: TGGTGGCTACGACGGGATT
B4: ACUAGGG (DNA:RNA)
RNA: B1 RNA with C25A, G26C, C27U, C29G, C30G, U31G
DNA 1: CAATCTGAATTCCGGTCTCCC
DNA 2: TGGTGGCTACGACGGGATT
B5: GCCCGAG (DNA:RNA)
RNA: B1 RNA with C25G, G26C, A28C, C29G, C30A, U31G
DNA 1: CAATCTGAATTCCGGTCTCCC
DNA 2: TGGTGGCTACGACGGGATT
B6: CAUAAUA (DNA:RNA)
RNA: B1 RNA with G26A, C27U, C29A, C30U, U31A
DNA 1: CAATCTGAATTCCGGTCTCCC
DNA 2: TGGTGGCTACGACGGGATT
B7: CCCCCAU (DNA:RNA)
RNA: B1 RNA with G26C, A28C, C30A
DNA 1: CAATCTGAATTCCGGTCTCCC
DNA 2: TGGTGGCTACGACGGGATT
B8: UAAGGAC (DNA:RNA)
RNA: GGGAGACCGGAAUUCAGAUUGUCCUAAGGACUUAAAUCCCGUCGUAGCCACCA
DNA 1: CAATCTGAATTCCGGTCTCCC
DNA 2: TGGTGGCTACGACGGGATT
B9: CGUCACG (DNA:RNA)
RNA: B1 RNA with C27U, A28C, C29A, U31G
DNA 1: CAATCTGAATTCCGGTCTCCC
DNA 2: TGGTGGCTACGACGGGATT
B10: ACAAGUU (DNA:RNA)
RNA: B1 RNA with C25A, G26C, C27A, C29G, C30U
DNA 1: CAATCTGAATTCCGGTCTCCC
DNA 2: TGGTGGCTACGACGGGATT
B11: AUAAUUA (DNA:RNA)
RNA: B1 RNA with C25A, G26U, C27A, C29U, C30U, U31A
DNA 1: CAATCTGAATTCCGGTCTCCC
DNA 2: TGGTGGCTACGACGGGATT
B12: UAGGGGC (DNA:RNA)
RNA: B8 RNA with A27G, A30G
DNA 1: CAATCTGAATTCCGGTCTCCC
DNA 2: TGGTGGCTACGACGGGATT
B13: CAGGCUU (DNA:RNA)
RNA: B1 RNA with G26A, C27G, A28G, C30U
DNA 1: CAATCTGAATTCCGGTCTCCC
DNA 2: TGGTGGCTACGACGGGATT
B14: AGCCAUG (DNA:RNA)
RNA: B1 RNA with C25A, A28C, C29A, C30U, U31G
DNA 1: CAATCTGAATTCCGGTCTCCC
DNA 2: TGGTGGCTACGACGGGATT
B15: CCACCAA (DNA:RNA)
RNA: B1 RNA with G26C, C27A, A28C, C30A, U31A
DNA 1: CAATCTGAATTCCGGTCTCCC
DNA 2: TGGTGGCTACGACGGGATT
B16: AUAGAUG (DNA:RNA)
RNA: B8 RNA with U25A, A26U, G29A, A30U, C31G
DNA 1: CAATCTGAATTCCGGTCTCCC
DNA 2: TGGTGGCTACGACGGGATT
B17: GUGGUGU (DNA:RNA)
RNA: B1 RNA with C25G, G26U, C27G, A28G, C29U, C30G
DNA 1: CAATCTGAATTCCGGTCTCCC
DNA 2: TGGTGGCTACGACGGGATT
B18: GCCAGAU (DNA:RNA)
RNA: B1 RNA with C25G, G26C, C29G, C30A
DNA 1: CAATCTGAATTCCGGTCTCCC
DNA 2: TGGTGGCTACGACGGGATT
B19: ACCCACC (DNA:RNA)
RNA: B1 RNA with C25A, G26C, A28C, C29A, U31C
DNA 1: CAATCTGAATTCCGGTCTCCC
DNA 2: TGGTGGCTACGACGGGATT
B20: UUUCAAU (DNA:RNA)
RNA: B8 RNA with A26U, A27U, G28C, G29A, C31U
DNA 1: CAATCTGAATTCCGGTCTCCC
DNA 2: TGGTGGCTACGACGGGATT
B21: GGAGAGG (DNA:RNA)
RNA: B8 RNA with U25G, A26G, G29A, A30G, C31G
DNA 1: CAATCTGAATTCCGGTCTCCC
DNA 2: TGGTGGCTACGACGGGATT
B22: AUGCAGG (DNA:RNA)
RNA: GGGAGACCGGAAUUCAGAUUGUCCAUGCAGGUUAAAUCCCGUCGUAGCCACCA
DNA 1: CAATCTGAATTCCGGTCTCCC
DNA 2: TGGTGGCTACGACGGGATT
B23: AACUGUU (DNA:RNA)
RNA: B1 RNA with C25A, G26A, A28U, C29G, C30U
DNA 1: CAATCTGAATTCCGGTCTCCC
DNA 2: TGGTGGCTACGACGGGATT
B24: GGGCAAA (DNA:RNA)
RNA: B22 RNA with A25G, U26G, G30A, G31A
DNA 1: CAATCTGAATTCCGGTCTCCC
DNA 2: TGGTGGCTACGACGGGATT
B25: CAAAGAA (DNA:RNA)
RNA: B8 RNA with U25C, G28A, C31A
DNA 1: CAATCTGAATTCCGGTCTCCC
DNA 2: TGGTGGCTACGACGGGATT
B26: GCGAACU (DNA:RNA)
RNA: B1 RNA with C25G, G26C, C27G, C29A
DNA 1: CAATCTGAATTCCGGTCTCCC
DNA 2: TGGTGGCTACGACGGGATT
B27: AUUUAGC (DNA:RNA)
RNA: B22 RNA with G27U, C28U, G31C
DNA 1: CAATCTGAATTCCGGTCTCCC
DNA 2: TGGTGGCTACGACGGGATT
B28: CGGAACU (DNA:RNA)
RNA: B1 RNA with C27G, C29A
DNA 1: CAATCTGAATTCCGGTCTCCC
DNA 2: TGGTGGCTACGACGGGATT
B29: CCGUCAC (DNA:RNA)
RNA: B1 RNA with G26C, C27G, A28U, C30A, U31C
DNA 1: CAATCTGAATTCCGGTCTCCC
DNA 2: TGGTGGCTACGACGGGATT
B30: AGAAUAG (DNA:RNA)
RNA: B22 RNA with U26G, G27A, C28A, A29U, G30A
DNA 1: CAATCTGAATTCCGGTCTCCC
DNA 2: TGGTGGCTACGACGGGATT
B31: UUGUCGC (DNA:RNA)
RNA: B22 RNA with A25U, C28U, A29C, G31C
DNA 1: CAATCTGAATTCCGGTCTCCC
DNA 2: TGGTGGCTACGACGGGATT

target: T1, RBFOX1 RRM; assay: EMSA; HiTS-Eq, 1 nM pool, 10 min; buffer printed only for the single-RNA assays: 10 mM Tris pH 7.5, 150 mM NaCl, 3.4 mM EDTA, 0.001% NP-40, 30 C; details: tags: His6 N-terminal (pET28a); label: 5' 32P
Procedure, shortened: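 A pool of RNA with 7 randomized nucleotides, 5′-radiolabelled and with DNA-annealed flanks, was equilibrated at 1 nM for 10 min in 50 µL with purified RbFox RRM, wild type or mutant, across increasing protein concentrations. Free RNA was separated by 8% native PAGE, excised, reverse-transcribed, barcoded by PCR and sequenced. Relative association constants were obtained from read-count changes of each RNA species versus the control reaction and normalised to the cognate motif.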

Row | Binder | binding signal
1 | B1 | 0.0111 KA relative to UGCAUGU
2 | B2 | 0.00549 KA relative to UGCAUGU
3 | B3 | 0.016 KA relative to UGCAUGU
4 | B4 | 0.00548 KA relative to UGCAUGU
5 | B5 | 0.0155 KA relative to UGCAUGU
6 | B6 | 0.000351 KA relative to UGCAUGU
7 | B7 | 0.00472 KA relative to UGCAUGU
8 | B8 | 0.00395 KA relative to UGCAUGU
9 | B9 | 0.00726 KA relative to UGCAUGU
10 | B10 | 0.00111 KA relative to UGCAUGU
11 | B11 | 0.000991 KA relative to UGCAUGU
12 | B12 | 0.00528 KA relative to UGCAUGU
13 | B13 | 0.0134 KA relative to UGCAUGU
14 | B14 | 0.0102 KA relative to UGCAUGU
15 | B15 | 0.000328 KA relative to UGCAUGU
16 | B16 | 0.00871 KA relative to UGCAUGU

Row | Binder | binding signal
17 | B17 | 0.0221 KA relative to UGCAUGU
18 | B18 | 0.011 KA relative to UGCAUGU
19 | B19 | 0.000895 KA relative to UGCAUGU
20 | B20 | 0.00374 KA relative to UGCAUGU
21 | B21 | 0.0192 KA relative to UGCAUGU
22 | B22 | 0.014 KA relative to UGCAUGU
23 | B23 | 0.00468 KA relative to UGCAUGU
24 | B24 | 0.0043 KA relative to UGCAUGU
25 | B25 | 0.000523 KA relative to UGCAUGU
26 | B26 | 0.00939 KA relative to UGCAUGU
27 | B27 | 0.00445 KA relative to UGCAUGU
28 | B28 | 0.0254 KA relative to UGCAUGU
29 | B29 | 0.00351 KA relative to UGCAUGU
30 | B30 | 0.0047 KA relative to UGCAUGU
31 | B31 | 0.0248 KA relative to UGCAUGU

Reference: publication PMC9911399, “Two distinct binding modes provide the RNA-binding protein RbFox with extraordinary sequence specificity”
